Laboratory results from paper PMC9054915.

Substrate: CC(C)NC[C@@H](C(=O)N1CCN(c2ncnc3c2[C@H](C)C[C@H]3O)CC1)c1ccc(Cl)cc1
Assay: In vitro CYP3A4 enzyme kinetics (Km)
Type: in vitro ADME
Conditions: other: in vitro

B1: CYP3A4 (Homo sapiens) (protein)
chain: MALIPDLAMETWLLLAVSLVLLYLYGTHSHGLFKKLGIPGPTPLPFLGNILSYHKGFCMFDMECHKKYGKVWGFYDGQQPVLAITDPDMIKTVLVKECYSVFTNRRPFGPVGFMKSAISIAEDEEWKRLRSLLSPTFTSGKLKEMVPIIAQYGDVLVRNLRREAETGKPVTLKDVFGAYSMDVITSTSFGVNIDSLNNPQDPFVENTKKLLRFDFLDPFFLSITVFPFLIPILEVLNICVFPREVTNFLRKSVKRMKESRLEDTQKHRVDFLQLMIDSQNSKETESHKALSDLELVAQSIIFIFAGYETTSSVLSFIMYELATHPDVQQKLQEEIDAVLPNKAPPTYDTVLQMEYLDMVVNETLRLFPIAMRLERVCKKDVEINGMFIPKGVVVMIPSYALHRDPKYWTEPEKFLPERFSKKNKDNIDPYIYTPFGSGPRNCIGMRFALMNMKLALIRVLQNFSFKPCKETQIPLKLSLGGLLQPEKPVVLKVESRDGTVSGA
- Km: 19.47 µM
